# In PMC4336329 (PLoS ONE, 2015):
# The campaign covered roughly 310,000 compounds. About 14,000 (4.5%) showed an effect of 50% or more. The effect is printed as a negative number. This is one part of the list.
# Target: human ether-à-go-go-related gene (hERG) potassium channel (human, UniProt Q12809)
# Test: primary screen, population patch clamp on CHO cells stably expressing hERG
# 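Further: peak tail current of the secondary pulse compared with the same well before compound.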
# human ether-à-go-go-related gene (hERG) potassium channel, sequence (Q12809 whole entry, looked up): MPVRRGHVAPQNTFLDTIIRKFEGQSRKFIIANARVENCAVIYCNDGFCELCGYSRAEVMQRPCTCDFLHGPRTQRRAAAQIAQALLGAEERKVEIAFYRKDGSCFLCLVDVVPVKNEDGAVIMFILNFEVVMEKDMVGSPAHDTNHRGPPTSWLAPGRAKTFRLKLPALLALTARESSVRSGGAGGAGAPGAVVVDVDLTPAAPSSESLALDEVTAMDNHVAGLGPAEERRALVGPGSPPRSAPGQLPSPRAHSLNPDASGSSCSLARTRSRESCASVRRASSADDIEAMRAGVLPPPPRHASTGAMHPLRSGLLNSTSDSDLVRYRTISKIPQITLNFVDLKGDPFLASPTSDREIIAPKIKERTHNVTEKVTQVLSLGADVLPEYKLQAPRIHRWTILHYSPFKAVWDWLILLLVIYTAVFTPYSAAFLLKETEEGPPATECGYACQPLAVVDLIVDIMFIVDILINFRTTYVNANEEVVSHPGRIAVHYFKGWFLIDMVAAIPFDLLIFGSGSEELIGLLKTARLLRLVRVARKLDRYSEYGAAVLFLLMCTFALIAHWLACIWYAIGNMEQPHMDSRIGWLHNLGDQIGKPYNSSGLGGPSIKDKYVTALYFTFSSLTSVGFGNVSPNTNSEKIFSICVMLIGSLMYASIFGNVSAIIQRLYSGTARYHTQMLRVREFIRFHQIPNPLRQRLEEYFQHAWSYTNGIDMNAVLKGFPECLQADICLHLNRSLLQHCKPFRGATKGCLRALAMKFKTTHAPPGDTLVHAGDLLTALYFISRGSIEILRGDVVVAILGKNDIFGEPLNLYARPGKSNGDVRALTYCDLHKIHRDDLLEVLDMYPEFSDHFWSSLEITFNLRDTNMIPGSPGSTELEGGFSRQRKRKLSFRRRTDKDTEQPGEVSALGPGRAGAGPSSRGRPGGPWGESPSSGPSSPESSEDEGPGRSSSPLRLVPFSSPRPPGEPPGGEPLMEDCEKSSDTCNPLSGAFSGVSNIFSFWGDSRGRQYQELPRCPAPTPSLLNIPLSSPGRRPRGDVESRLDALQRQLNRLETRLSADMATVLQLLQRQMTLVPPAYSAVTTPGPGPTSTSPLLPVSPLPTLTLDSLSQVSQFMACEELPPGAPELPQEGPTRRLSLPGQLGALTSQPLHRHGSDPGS
row,Compound,"hERG current change (%, negative = inhibition) at 10uM [%]"
1,Cl.O=C(COc1ccc(F)cc1)OCCN1CCOCC1,12
2,COc1cccc(NC(=O)N2CCN(c3cccc(C)c3)C(C)C2)c1 (stereo not drawn),-16
3,Cc1cc(C)c(C)c(S(=O)(=O)N2CCC(C(=O)NCC(c3ccccc3)N(C)C)CC2)c1C (stereo not drawn),-48.9
4,CSc1ccc(CN(C)CC(=O)Nc2ccccc2Br)cc1,17.3
5,COC(=O)COc1cc(C)cc2oc(=O)c3c(c12)CCCC3,-29.7
6,CCCc1cc(CN(C)C(=O)CC2C(=O)NCCN2Cc2ccccc2C)[nH]n1 (stereo not drawn),0.823
7,Cc1ccc2oc(-c3cccc(NC(=S)NC(=O)c4cccs4)c3)nc2c1,12.3
8,CC(C)OC(=O)Nc1ccc(Oc2c(F)c(F)c(F)c(F)c2F)cc1,-9.33
9,Cc1ccc(C(=O)NCc2ccc3c(c2)OCO3)cc1S(=O)(=O)N1CCOCC1,-27.8
10,Cc1nc2ccccc2c2oc(C(=O)NCC3CCCO3)cc12 (stereo not drawn),-14.2
11,O=C(NC1CCN(C(=O)NC2CCCCC2)CC1)c1ccco1,10.8
12,CN(C)c1nc(N)nc(/C(C#N)=C/C2CC3C=CC2C3)n1 (stereo not drawn),1.04
13,O=C(COC(=O)c1ccc(NS(=O)(=O)c2ccc(F)c(F)c2)cc1)NCC1CCCO1 (stereo not drawn),-1.59
14,O=C(NCCCN1CCCC1)c1cc2c(Cl)nc3ccccc3c2s1,-13.9
15,O=[N+]([O-])c1cc(S(=O)(=O)Nc2cccc(C(F)(F)F)c2)ccc1-n1nnc2ccccc21,0.81
16,COC(=O)c1c(NC(=O)c2ccn(C)n2)sc2c1CCC2,20
17,CC1CCc2c(c3ccccc3n2C(=O)CCl)C1 (stereo not drawn),14.2
18,COc1ccc(NC(=O)c2c(NC(=O)CNCc3ccco3)sc3c2CCC3)cc1,17.8
19,CS/C(=C\[N+](=O)[O-])Nc1ccc(F)cc1,15.7
20,CCCCn1cnc2c(c1=O)c1nc3ccccc3nc1n2Cc1ccc2c(c1)OCO2,24.1
21,CC(=O)Nc1cccc(-c2csc(Nc3ccccn3)n2)c1,4.58

row,Compound,"hERG current change (%, negative = inhibition) at 10uM [%]"
1,CSc1nc2nc3c(cc2c(=O)[nH]1)C(O)Oc1ccc(C)cc1-3 (stereo not drawn),-1.1
2,Clc1ccc2[nH]c3c(NCC4CCCO4)ncnc3c2c1 (stereo not drawn),-16.2
3,O=C(CSc1cccc[n+]1[O-])c1cc2ccccc2o1,-4.46
4,CCCCOc1ccc(Nc2nc(C)cc(C)c2C#N)cc1,-20.1
5,CCOC(=O)c1ccc(NC(=S)Nc2ccc3[nH]c(=O)[nH]c3c2)cc1,1.23
6,Cn1cc(C(=O)N2CCN(c3ccccc3)CC2)c(=O)c2cc(S(=O)(=O)N3CCOCC3)ccc21,8.44
7,Cc1nc(S/C(=C/c2ccc(-c3cc(Cl)ccc3C)o2)C(=O)O)n[nH]1,8.16
8,CCSc1nnc([C@H](C)NC(=O)OC(C)(C)C)o1,-7.7
9,COc1cc(OC)c(N(C)S(=O)(=O)c2cccc(C(=O)OCC(=O)c3c[nH]c4ccccc34)c2)cc1Cl,10.5
10,O=C(c1cccn2c(=O)c3cc(Cl)ccc3nc12)N1CCOCC1,-52.9
11,Cc1ccc(C(=O)OCC(=O)Nc2c(Cl)cc(S(N)(=O)=O)cc2Cl)o1,11.2
12,O=C(O)c1ccc2c(=O)n3c(nc2c1)/C(=C/c1ccc(F)cc1)CC3,19.7
13,Cc1ccc(C(=O)OCCOc2cccc(Cl)c2)cc1S(=O)(=O)N1CCOCC1,-12.2
14,Cn1c2ccccc2c2c(C(=O)N3CCN(c4ccccn4)CC3)cn(C3CCCC3)c(=O)c21,-39.2
15,Cc1cc(NC(=O)CSCC(=O)OC(C)C(=O)N(C)Cc2ccccc2)no1 (stereo not drawn),1.1
16,O=C1c2ccccc2C(=O)N1CCCCN(C(=O)c1ccc(Cl)s1)c1ccc(Cl)cc1,8.41
17,Cc1ccc(Nc2cc(C)nn2-c2nc(C)cc(=O)[nH]2)cc1,3
18,O=C(Nc1ccccc1O)c1cc(S(=O)(=O)N2CCOCC2)ccc1Cl,-5.14
19,Cc1ccc(-n2nnnc2SCC(=O)Nc2ccc(N3CCN(C)CC3)cc2)c(C)c1,-21
20,CC(C)[C@H](NC(=O)N1c2ccccc2NC(=O)[C@@H]1C(C)C)C(=O)N[C@@H](Cc1c[nH]c2ccccc12)C(=O)O,3.11
21,COc1cccc(OC)c1OCc1cc(C2C3CCCC=C3C(C#N)=C(N)C2(C#N)C#N)c(C)cc1C (stereo not drawn),1.6
